From the supplement of paper PMC10600219
Counter-ions that a name gives are not always drawn. Whole data set: some 2,800 compounds, median “cell viability relative to vehicle” near 0.98, cut for the lowest 2% near 0.45. The list shows a part of the results.

tested on: NCI-H2228 alectinib-DTP; assay: cell viability relative to vehicle (fraction of vehicle); NCI-H2228 is an ALK-positive lung cancer line and DTP means drug-tolerant persister; higher = less growth inhibition; conditions: 100 nM; treatment time 6 days
Method in brief: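 Each value is viability relative to vehicle-treated cells, measured as ATP with the CellTiter-Glo 3D Cell Viability Assay. Parental NCI-H2228 cells and drug-tolerant persisters (1000 nM targeted drug, 13 days) in 384-well plates received the 3114-agent TargetMol anti-cancer compound library at 100 nM, or DMSO, and were read 6 days later.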

Structure (SMILES)	cell viability
CCn1nc(C(=O)O)c(=O)c2cc3c(cc21)OCO3 [Cinoxacin]	0.972
Cc1cc(C)cc(C(=O)NOCCCCCC(=O)NO)c1	0.842
N[C@@H]1CC[C@@H](c2ccc(Cl)c(Cl)c2)c2ccccc21 [Dasotraline hydrochloride]	1.02
CCCc1nc(C)c2c(=O)nc(-c3cc(S(=O)(=O)N4CCN(CC)CC4)ccc3OCC)[nH]n12 [Vardenafil hydrochloride trihydrate]	1.02
CNC(=O)c1cc(COc2nnc(Nc3ccc(Cl)cc3)c3ccoc23)ccn1 [Telatinib]	0.971
O=C1CCc2ccccc2C1 [Beta-Tetralone]	0.95
COc1cc2nccc(Oc3ccc(NC(=O)C4(C(=O)Nc5ccc(F)cc5)CC4)cc3)c2cc1OC [Cabozantinib Malate]	0.725
COc1cc2nccc(Oc3ccc(NC(=O)C4(C(=O)Nc5ccc(F)cc5)CC4)cc3)c2cc1OC [Cabozantinib]	0.872
O=C(O)/C=C/c1ccc(Cn2ccnc2)cc1 [Ozagrel hydrochloride]	0.927
O=C(O)/C=C/c1ccc(Cn2ccnc2)cc1 [Ozagrel]	1.05
C[C@]12CC[C@@H]3c4ccc(O)cc4CC[C@H]3[C@@H]1CC[C@H]2O [17α-Estradiol]	0.962
COc1cccc(/C=N/N(C(=O)C(F)(F)F)c2ccc(C)cc2C)c1	0.889
CNC(=O)[C@H](Cc1c[nH]c2ccccc12)NC(=O)[C@@H](CC(=O)NO)CC(C)C [Ilomastat]	0.877
CC(C)C1=CC2=CC[C@@H]3[C@](C)(CCC[C@@]3(C)C(=O)O)[C@H]2CC1 [Abietic Acid]	0.994
Oc1ccc(OCc2ccccc2)cc1 [Monobenzone]	1.15
NC1(C(=O)N[C@@H](CCO)c2ccc(Cl)cc2)CCN(c2nc[nH]c3nccc2-3)CC1 [Capivasertib]	0.829
CC1=Nc2ccc(Cl)cc2S(=O)(=O)N1 [Diazoxide]	0.974
Cc1ncc(NC(=O)c2ccc(CN3CCN(C)CC3)c(C(F)(F)F)c2)cc1Nc1nccc(-c2cccnc2)n1 [Flumatinib]	1.15
Cc1cc(/N=N/c2ccc(S(=O)(=O)Nc3ccccn3)cc2)c(N)cc1O	0.977
COc1cc(O)c(CC=C(C)C)c(O)c1C(=O)/C=C/c1ccc(O)cc1 [Xanthohumol]	1.04
CO[C@@]12[C@H](COC(N)=O)C3=C(C(=O)C(C)=C(N)C3=O)N1C[C@@H]1N[C@@H]12 [Mitomycin C]	1.06
CC(C(=O)O)c1ccc(N2Cc3ccccc3C2=O)cc1 (centres undefined) [Indoprofen]	1.08
CN(C)CCOc1ccc(/C(=C(/CCCl)c2ccccc2)c2ccccc2)cc1 [Toremifene]	1.19
CN(C)CCOc1ccc(/C(=C(/CCCl)c2ccccc2)c2ccccc2)cc1 [Toremifene citrate]	0.936
CCCN(CCC)C(=O)C1=Cc2ccc(-c3ccc(C(=O)N4CCCC4)cc3)cc2N=C(N)C1 [Motolimod]	1.07

Structure (SMILES)	cell viability
O=C(NCCO[N+](=O)[O-])c1cccnc1 [Nicorandil]	0.916
Cc1ccc(Cl)c(Nc2ccccc2C(=O)O)c1Cl [Meclofenamate Sodium]	0.958
CC1=C(/C=C/C(C)=C/C=C/C(C)=C/C=C/C=C(C)/C=C/C=C(C)/C=C/C2=C(C)CCCC2(C)C)C(C)(C)CCC1 [Beta-Carotene]	0.961
CC[C@H]1OC(=O)[C@H](C)[C@@H](O[C@H]2C[C@@](C)(OC)[C@@H](O)[C@H](C)O2)[C@H](C)[C@@H](O[C@@H]2O[C@H](C)C[C@H](N(C)C)[C@H]2O)[C@](C)(O)C[C@@H](C)C(=O)[C@H](C)[C@@H](O)[C@]1(C)O [Erythromycin]	1.14
CC(C(=O)O)c1ccc(CC2CCCC2=O)cc1 (centres undefined) [Loxoprofen]	1.21
O=C(O)CCc1nc(-c2ccccc2)c(-c2ccccc2)o1 [Oxaprozin]	1.26
O=C(c1cc(Cc2n[nH]c(=O)c3ccccc23)ccc1F)N1CCN(C(=O)C2CC2)CC1 [Olaparib]	1.07
CC(C)(Oc1ccc(CCNC(=O)c2ccc(Cl)cc2)cc1)C(=O)O [Bezafibrate]	1.07
OCCN1CCN(CCCN2c3ccccc3Sc3ccc(C(F)(F)F)cc32)CC1 [Fluphenazine hydrochloride]	1.17
c1ccc(CC2=NCCN2)cc1 [Tolazoline hydrochloride]	1.01
COc1c(O)cc2occ(-c3ccc(O)cc3)c(=O)c2c1O [Tectorigenin]	1.02
CCc1ccc(CCOc2ccc(CC3SC(=O)NC3=O)cc2)nc1 (centres undefined) [Pioglitazone]	0.967
Cc1ccc(N(CC2=NCCN2)c2cccc(O)c2)cc1 [Phentolamine mesilate]	0.956
CC(C)Nc1cc(-c2c[nH]c(C(=O)N[C@H](CO)c3cccc(Cl)c3)c2)c(Cl)cn1 [Ulixertinib]	1.06
c1ccc(-c2nc(-c3ccc(-c4nc(-c5ccccc5)c(-c5ccccc5)[nH]4)cc3)[nH]c2-c2ccccc2)cc1	0.986
CO[C@H]1/C=C/O[C@@]2(C)Oc3c(C)c(O)c4c(O)c(c(/C=N/N5CCN(C)CC5)c(O)c4c3C2=O)NC(=O)/C(C)=C\C=C\[C@H](C)[C@H](O)[C@@H](C)[C@@H](O)[C@@H](C)[C@H](OC(C)=O)[C@@H]1C [Rifampicin]	1.15
CC(=O)C1=C(O)C=C2Oc3c(C(C)=O)c(O)c(C)c(O)c3C2(C)C1=O (stereo in doubt) [Usnic Acid]	1.06
CCCSc1ccc2[nH]c(NC(=O)OC)nc2c1 [Albendazole]	1.03
Cc1c(Cl)cccc1Nc1ccccc1C(=O)O [Tolfenamic Acid]	0.929
C(=N\NC1=NCCN1)/c1c2ccccc2c(/C=N/NC2=NCCN2)c2ccccc12 [Bisantrene]	1.12
COCCCC/C(=N\OCCN)c1ccc(C(F)(F)F)cc1 [Fluvoxamine maleate]	1.08
NC(=O)N[C@@H](CCC(=O)O)C(=O)O [Carbaglu]	1.01
O=C1/C(=C/c2cccs2)CC/C1=C\c1cccs1	1.05
O=C(Nc1cc(C(F)(F)F)cc(C(F)(F)F)c1)c1cc(Cl)ccc1O	1.05
